Assay results reported in PubChem BioAssay AID504333 (National Center for Advancing Translational Sciences (NCATS), 2011).
The whole screen tested about 360,000 compounds, of which about 16,000 (4.4%) were called active. Inconclusive results, whose numbers are uncertain, are shown with a selection of clear calls. Calls follow the shape of the dose curve; as a rule, active = well fitted inhibition curve with a large enough effect; inconclusive = small, poorly fitted or top-dose-only effect; inactive = no such curve, though single readings can be large or run the other way. Where the call is inconclusive, the potency comes from a doubtful curve fit.

biological target: Bromodomain adjacent to zinc finger domain protein 2B (Homo sapiens) (UniProt Q9UIF8); test: qHTS Assay for Inhibitors of BAZ2B; details: AlphaScreen BAZ2B-H3K14Ac peptide displacement; activity change, negative = inhibition: at 114 µM (top of the series); also: nearly all actives have a fitted effect of over 60% in size
Summary of the method: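 AlphaScreen luminescence quantifies BAZ2B engagement of H3K14Ac peptide; the protein and biotinylated peptide are both at 50 nM final, buffer PBS pH 7.4 with 0.01% Tween-20, all steps at room temperature.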
% is scaled to controls: 0 for no effect and ±100 for the full control effect; potency is read from the fitted curve at half-maximal effect; tags tell the direction and shape of the fitted curve.

Sequence of UniProt Q9UIF8 (Q9UIF8 whole entry, looked up, the tested form may be a part): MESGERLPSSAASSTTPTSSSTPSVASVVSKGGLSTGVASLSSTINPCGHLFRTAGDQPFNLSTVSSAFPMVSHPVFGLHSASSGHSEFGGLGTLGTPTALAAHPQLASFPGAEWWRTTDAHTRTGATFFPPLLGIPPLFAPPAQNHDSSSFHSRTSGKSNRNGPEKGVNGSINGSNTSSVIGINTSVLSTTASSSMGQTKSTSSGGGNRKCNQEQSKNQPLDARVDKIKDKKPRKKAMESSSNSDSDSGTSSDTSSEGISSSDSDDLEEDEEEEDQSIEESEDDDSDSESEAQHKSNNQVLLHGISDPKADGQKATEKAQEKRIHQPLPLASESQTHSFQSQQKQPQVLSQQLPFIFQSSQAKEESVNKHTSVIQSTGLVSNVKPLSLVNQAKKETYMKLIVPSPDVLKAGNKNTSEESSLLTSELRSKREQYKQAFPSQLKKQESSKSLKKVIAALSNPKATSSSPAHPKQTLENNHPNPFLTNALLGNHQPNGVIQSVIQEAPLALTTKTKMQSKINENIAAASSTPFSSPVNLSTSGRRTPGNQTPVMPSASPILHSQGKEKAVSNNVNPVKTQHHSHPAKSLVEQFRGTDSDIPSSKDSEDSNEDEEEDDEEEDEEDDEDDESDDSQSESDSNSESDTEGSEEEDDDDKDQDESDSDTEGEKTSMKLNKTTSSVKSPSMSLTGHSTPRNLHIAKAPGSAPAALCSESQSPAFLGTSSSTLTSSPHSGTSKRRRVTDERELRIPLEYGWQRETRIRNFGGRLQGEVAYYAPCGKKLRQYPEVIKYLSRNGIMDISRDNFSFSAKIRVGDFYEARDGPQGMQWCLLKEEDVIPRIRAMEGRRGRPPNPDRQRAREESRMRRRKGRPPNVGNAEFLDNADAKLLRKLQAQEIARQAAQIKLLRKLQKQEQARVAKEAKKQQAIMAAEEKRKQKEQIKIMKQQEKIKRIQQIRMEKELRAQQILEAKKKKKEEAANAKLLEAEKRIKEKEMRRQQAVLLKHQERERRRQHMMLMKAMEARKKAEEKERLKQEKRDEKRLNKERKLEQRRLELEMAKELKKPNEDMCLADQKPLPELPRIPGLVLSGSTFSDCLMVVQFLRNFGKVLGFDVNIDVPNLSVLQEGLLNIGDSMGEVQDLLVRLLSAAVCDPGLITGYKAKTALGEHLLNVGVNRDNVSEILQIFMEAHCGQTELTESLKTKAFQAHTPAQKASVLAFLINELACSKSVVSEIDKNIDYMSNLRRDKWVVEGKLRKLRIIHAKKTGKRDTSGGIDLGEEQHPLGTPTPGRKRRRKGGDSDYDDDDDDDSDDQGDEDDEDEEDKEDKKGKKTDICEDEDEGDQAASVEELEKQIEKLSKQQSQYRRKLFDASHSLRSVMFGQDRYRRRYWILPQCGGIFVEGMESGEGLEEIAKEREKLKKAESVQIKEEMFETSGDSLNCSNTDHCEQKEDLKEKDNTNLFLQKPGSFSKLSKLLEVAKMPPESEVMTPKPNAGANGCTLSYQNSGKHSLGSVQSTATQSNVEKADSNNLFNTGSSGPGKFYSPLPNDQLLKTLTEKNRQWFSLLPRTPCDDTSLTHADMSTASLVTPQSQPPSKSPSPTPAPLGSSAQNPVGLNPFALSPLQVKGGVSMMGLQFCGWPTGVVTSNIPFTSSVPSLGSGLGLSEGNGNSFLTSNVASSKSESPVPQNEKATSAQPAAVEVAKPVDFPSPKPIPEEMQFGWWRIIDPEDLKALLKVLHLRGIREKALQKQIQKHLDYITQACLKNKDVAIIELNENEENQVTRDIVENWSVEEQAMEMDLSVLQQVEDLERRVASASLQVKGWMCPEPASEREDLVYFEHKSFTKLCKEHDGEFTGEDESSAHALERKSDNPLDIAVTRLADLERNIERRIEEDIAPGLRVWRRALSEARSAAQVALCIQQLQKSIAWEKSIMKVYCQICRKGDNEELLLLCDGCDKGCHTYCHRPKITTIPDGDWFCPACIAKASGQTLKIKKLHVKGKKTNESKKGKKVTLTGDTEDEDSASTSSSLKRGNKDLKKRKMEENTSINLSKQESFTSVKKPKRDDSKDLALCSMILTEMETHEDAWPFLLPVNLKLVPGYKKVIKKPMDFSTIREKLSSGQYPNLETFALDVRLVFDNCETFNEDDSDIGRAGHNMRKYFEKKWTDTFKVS

Row | Compound | Potency | activity change, negative = inhibition
1 | CN(C)c1ccc(NC(=O)c2ccc(COc3cccc(Cl)c3)o2)cc1 | active: 10 µM | 
2 | Cc1ccn2c(=O)cc(COc3ccc(NC(=O)COc4ccccc4)cc3)nc2c1 |  | inactive: 3.23%
3 | COc1ccc(Cc2nnc(N/N=C/c3ccc(C)o3)[nH]c2=O)cc1 | inconclusive: 89.1 µM [inhibitor, single point] | 
4 | COc1cc(-c2nc(-c3ccc4c(c3)[nH]c(=O)n4C)no2)cc(OC)c1OC |  | inactive: 5.32%
5 | COc1ccc(Nc2nc(Nc3ccc(OC)cc3)nc(SC3=NCCS3)n2)cc1 | inconclusive: 31.6 µM [inhibitor, partial curve] | 
6 | COc1ccc2[nH]c(O)c(N=O)c2c1 | inconclusive: 89.1 µM [inhibitor, single point] | 
7 | O=[N+]([O-])c1ccc(C2=Nc3cc(Cl)ccc3OC2)cc1 | inconclusive: 22.4 µM [inhibitor, full curve] | 
8 | CN1CCN(c2ccc(C(=O)c3ccc(Br)cc3)cc2[N+](=O)[O-])CC1 | active: 39.8 µM | 
9 | O=C(COC(=O)c1nc(Cl)ccc1Cl)Nc1ccc2[nH]c(=O)[nH]c2c1 |  | inactive: 5.6%
10 | CCn1c(C)c(C)c2cc(C(=O)NCCCN3CCCCC3C)ccc21 (centres undefined) | inconclusive: 79.4 µM [inhibitor, partial curve] | 
11 | COc1ccc(CNC(=O)CS(=O)Cc2nc(-c3ccc(OC)c(OC)c3)oc2C)cc1 (centres undefined) | inconclusive: 89.1 µM [inhibitor, single point] | 
12 | O=P(c1ccccc1)(c1ccccc1)c1cc(S(=O)(=O)O)ccc1O | active: 50.1 µM | 
13 | CN1CCN(c2ccc([N+](=O)[O-])c(Sc3nc4ccccc4[nH]3)c2)CC1 | inconclusive: 50.1 µM [inhibitor, partial curve] | 
14 | O=C(N/N=C/c1c[nH]c2ccc(Br)cc12)c1ccc2c(c1)OCO2 | inconclusive: 79.4 µM [inhibitor, single point] | 
15 | CC(=O)OC[C@H]1O[C@@H](O/N=C(\C)CCN2CCCCc3nc(C)c(C)cc32)[C@H](OC(C)=O)[C@@H](OC(C)=O)[C@@H]1OC(C)=O |  | inactive: -21.2%
16 | COCCNC(=S)N1CCC(c2nc(-c3ccc(F)cc3)no2)CC1 | inconclusive: 50.1 µM [inhibitor, partial curve] | 
17 | CCc1cccc(C)c1NC(=O)C1CC=CCC1C(=O)O (centres undefined) | inconclusive: 89.1 µM [inhibitor, single point] | 
18 | CCCCCCC(=O)Nc1nc(C)c(-c2csc(Nc3ccc(Cl)cc3)n2)s1 | inconclusive: 28.2 µM [inhibitor, partial curve] | 
19 | Cc1nonc1C(=O)N/N=C/c1ccc([N+](=O)[O-])o1 | inconclusive: 89.1 µM [inhibitor, single point] | 
20 | CC1Cc2ccccc2N1CC(=O)Nc1ccc2c(c1)OC(F)(F)O2 (centres undefined) | inconclusive: 70.8 µM [inhibitor, partial curve] | 
21 | CN1c2ccc([N+](=O)[O-])cc2C(C)(C)C12C=Cc1cc(C(=O)O)ccc1O2 (centres undefined) | inconclusive: 50.1 µM [inhibitor, partial curve] | 
22 | O=C(/C=C/c1ccco1)Nc1ccc(F)cc1 | inconclusive: 50.1 µM [inhibitor, partial curve] | 

Row | Compound | Potency | activity change, negative = inhibition
23 | Cc1csc(NC(=O)c2nc3nc(C)cc(C)n3n2)n1 | inconclusive: 79.4 µM [inhibitor, single point] | 
24 | O=C(COc1ccc2ccccc2c1Br)Nc1ncn[nH]1 |  | inactive: -1.21%
25 | Nc1nc(COC(=O)CCC(=O)c2ccc(Cl)cc2)nc(Nc2ccccc2)n1 | inconclusive: 89.1 µM [inhibitor, single point] | 
26 | CCN(CC(=O)Nc1c(F)cccc1F)C(=O)c1ccc(COc2ccccc2)o1 |  | inactive: 9.12%
27 | CCC(C)NCCOc1ccc(C(C)(C)c2ccccc2)cc1 (centres undefined) | inconclusive: 89.1 µM [inhibitor, single point] | 
28 | Cc1ccc2[nH]c3c(Cl)ncnc3c2c1 | inconclusive: 89.1 µM [inhibitor, single point] | 
29 | COc1ccc(Nc2nc3ccc(Cl)cc3nc2-n2nc(C)cc2C)cc1 |  | inactive: 19.6%
30 | O=S(=O)(Nc1ccc(-n2cccc2)cc1)c1ccc(F)cc1 | inconclusive: 63.1 µM [inhibitor, partial curve, poor fit] | 
31 | Cc1cc(OCCn2ccnc2)ccc1C(C)C | active: 44.7 µM | 
32 | CCn1c(O)c(C=NC2CCCC(C)C2C)sc1=S (centres undefined) | inconclusive: 22.4 µM [inhibitor, full curve] | 
33 | CNC(=O)/C(C#N)=c1\s/c(=C/C(=O)OC)c(=O)n1-c1ccccc1 |  | inactive: -2.56%
34 | S=C(NCc1ccco1)Nc1ccc(Cl)cc1 | inconclusive: 70.8 µM [inhibitor, single point] | 
35 | Cc1cc(C(=O)CN2CCN(CC(=O)Nc3cccc(F)c3)CC2)c(C)n1C1CC1 | inconclusive: 0.631 µM [inhibitor, full curve, poor fit] | 
36 | Cc1cc(C)c(NC(=O)CSc2nnc(Cc3cccn3C)n2-c2ccc(F)cc2)c(C)c1 | inconclusive: 79.4 µM [inhibitor, single point] | 
37 | Cc1ccc(/C=N/N2CCN(c3ccc(Cl)cc3)CC2)o1 | inconclusive: 79.4 µM [inhibitor, single point] | 
38 | CCc1occc(=O)c1Oc1cc(NN2CCCCC2)c([N+](=O)[O-])cc1[N+](=O)[O-] | inconclusive: 44.7 µM [inhibitor, partial curve] | 
39 | Cc1cc(C)nc(SCc2nc3nc(C)cc(C)n3c2Br)n1 |  | inactive: -19%
40 | CC(=O)c1c(C)oc2c1cc(NS(=O)(=O)c1ccc(C(C)(C)C)cc1)c1ccccc12 |  | inactive: -29.4%
41 | Cc1cc(C(=O)OCC(=O)c2cccs2)ccc1[N+](=O)[O-] | inconclusive: 39.8 µM [inhibitor, full curve, poor fit] | 
42 | O=C(CSc1ncnc2scc(-c3ccccc3)c12)N1CCN(Cc2ccc3c(c2)OCO3)CC1 | inconclusive: 44.7 µM [inhibitor, partial curve] | 
43 | COc1ccc(-c2cc(=O)oc3cc(OCC(=O)NCC(O)c4ccccc4)ccc23)cc1 (centres undefined) |  | inactive: 7.67%
44 | CCn1c(=O)cc(OCC(=O)N2CCN(c3cccc(C)c3C)CC2)c2ccccc21 | inconclusive: 28.2 µM [inhibitor, full curve] | 
